Reference: PubChem BioAssay AID1963576 (National Center for Advancing Translational Sciences (NCATS), 2024)
Hit rate of the full screen: of about 46,000 compounds, about 60 (0.1%) were called active. Roughly 3% stayed inconclusive and do not appear here. The call rests on the fitted dose curve; in most records, active means well fitted inhibition curve with a large enough effect; inconclusive means small, poorly fitted or top-dose-only effect; inactive means no such curve, though single readings can be large or run the other way. This is one part of the list.

Test: Primary qHTS assay for Inhibitors of ovarian cancer metastasis using an organotypic tumor microenvironment (TME) model. Further: nearly all actives have a fitted effect of over 65% in size.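 On activity change, negative = inhibition: plate controls were DMSO wells for no effect and tomatine positive control wells for full effect.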
Settings: SKOV3ip1-GFP adhesion/invasion on 3D omental model, fluorescence; series mostly up to 45.8 µM; activity change, negative = inhibition: at the top concentration
Method in brief: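 A 3D layer of primary human omental fibroblasts, mesothelial cells, fibronectin and collagen I, grown 48 hr, received SKOV3ip1-GFP cells in serum-free medium plus compounds at 0.36-46 umol/L. After 2 hr RT and 16 hr 37 C, fixed adherent GFP cells were counted; normalized to DMSO and tomatine.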

Activity change, negative = inhibition, inactive:
COc1ccccc1C(=O)Nc1nnc(S(=O)(=O)N2CCCCC2)s1 36%
COc1ccc(Cl)cc1NC(=O)c1c(NCc2cccnc2)sc2c1CCCC2 5.41%
Cc1cc(-c2ccccc2)nc2cc(C(=O)Nc3ccc(Cl)c(Cl)c3)nn12 -1.7%
CC(C)c1cnc2c(c1SCC(=O)c1ccc(Cl)cc1)c(=O)n(C)c(=O)n2C -13.2%
COc1ccc2ncc3c(-c4ccccc4)nn(-c4ccc(C)c(C)c4)c3c2c1 -3.52%
Cc1ccccc1NC(=O)Cn1nnc(C(=O)NCc2ccco2)c1N 4.87%
COc1cc(OC)c(NC(=O)c2nn(C)c3c2COc2ccccc2-3)cc1Cl 0.334%
COc1ccccc1C(=O)NC1(C(F)(F)F)C(=O)NC(C)=C1C#N (configuration not stated) -1.02%
COc1ccccc1N1CCN(C(=O)C2CCN(S(=O)(=O)c3cccs3)CC2)CC1 -9.4%
CCOC(=O)c1cnc2cc(Cl)c(OC)cc2c1Nc1ccc(Br)cc1C 2.76%
CCOc1ccc(OC(=O)c2sc3ncn(Cc4cccc(F)c4)c(=O)c3c2C)cc1 -16.7%
O=C(CSc1c2c(nc3ccc(Cl)cc13)CCCC2)N1CCN(c2ccc(Cl)cc2)CC1 -5.45%
Cc1ccc(-c2nnc(Nc3cccc(Br)c3)c3ccccc23)cc1S(=O)(=O)N1CCN(C)CC1 -25.1%
Cc1ccc(C)c(Cn2c(=O)n(CCc3ccccc3)c(=O)c3c(C)c(C)sc32)c1 2.04%
Cc1cccc(C(=O)Nc2nnc(S(=O)(=O)N3CCOCC3)s2)c1 0.377%
COc1ccc(OC)c(NC(=O)C(Cc2ccccc2)NS(=O)(=O)c2ccc3c(c2)CCC(=O)N3)c1 (configuration not stated) -28.3%
Cc1cccc(C(=O)n2nc(-c3ccco3)nc2NCc2ccccc2)c1 -3.84%
COc1ccc(Cl)cc1S(=O)(=O)Nc1ccc2c(c1)n(C)c(=O)n2C -15.5%

outcome, inactive:
CC(C)(C)OC(=O)N1CCC(c2c(C(=O)NCCc3ccsc3)cnn2-c2ccc(F)cc2F)CC1
Cc1cccc(N2CCN(C(=O)C3CCN(S(=O)(=O)Cc4ccccc4)CC3)CC2)c1C
Cc1ccccc1NC(=O)Cn1c(=O)n(Cc2ccco2)c(=O)c2ccc(C(=O)NC3CCCC3)cc21
CSc1ccc(CCNS(=O)(=O)c2cc(-c3cc(C)no3)ccc2C)cc1
O=C(Nc1ccccc1)c1cc2c(-c3ccccc3)nn(-c3ccccc3)c2s1
COc1ccc(Cn2nc3n(c2=O)-c2ccccc2OC3)cc1
CCn1cc2nc(SCc3c(F)cccc3Cl)n(CCc3ccccc3)c(=O)c2n1
CCC(=O)N1c2ccccc2CC1C(=O)NCCCN1CCN(c2ccc(F)cc2)CC1 (configuration not stated)
O=C(COCc1cc(-c2ccc3c(c2)OCO3)on1)Nc1cccc(O)c1
